Consider one molecule from PMC11335210.

These are yes or no findings as the source states them, for the method shown. Binding seen in cells or lysates may run through a third protein. Some entries that bind do so weakly or less than the wild type.

Assay [1] has as its target T1, ARHGEF2 (also called GEFH1) (mouse (endogenous in mouse keratinocytes)) (UniProt Q60875).
T1 sequence: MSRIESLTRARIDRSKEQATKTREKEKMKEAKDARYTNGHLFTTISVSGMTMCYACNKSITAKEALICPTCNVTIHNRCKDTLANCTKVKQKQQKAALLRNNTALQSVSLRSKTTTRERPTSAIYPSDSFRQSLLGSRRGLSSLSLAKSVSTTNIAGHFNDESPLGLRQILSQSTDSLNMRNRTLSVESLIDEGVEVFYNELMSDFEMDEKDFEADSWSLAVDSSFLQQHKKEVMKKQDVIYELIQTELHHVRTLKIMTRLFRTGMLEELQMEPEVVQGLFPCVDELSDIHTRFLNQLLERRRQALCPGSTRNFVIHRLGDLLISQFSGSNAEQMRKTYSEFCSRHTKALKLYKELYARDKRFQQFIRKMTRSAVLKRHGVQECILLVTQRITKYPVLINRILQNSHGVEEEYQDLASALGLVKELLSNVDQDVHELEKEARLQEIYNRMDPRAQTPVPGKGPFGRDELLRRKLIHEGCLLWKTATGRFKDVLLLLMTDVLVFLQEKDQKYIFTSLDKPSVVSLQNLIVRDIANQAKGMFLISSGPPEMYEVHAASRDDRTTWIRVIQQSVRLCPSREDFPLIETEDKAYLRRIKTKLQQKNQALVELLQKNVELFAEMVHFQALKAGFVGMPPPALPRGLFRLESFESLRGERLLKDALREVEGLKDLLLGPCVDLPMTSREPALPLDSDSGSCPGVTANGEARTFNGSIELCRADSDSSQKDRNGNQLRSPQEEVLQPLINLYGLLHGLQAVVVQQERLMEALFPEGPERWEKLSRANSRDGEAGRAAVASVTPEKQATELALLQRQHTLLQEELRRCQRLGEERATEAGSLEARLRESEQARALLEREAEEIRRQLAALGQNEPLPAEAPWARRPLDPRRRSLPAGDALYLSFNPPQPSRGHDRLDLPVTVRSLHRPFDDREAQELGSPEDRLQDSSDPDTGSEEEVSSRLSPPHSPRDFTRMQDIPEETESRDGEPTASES
Kind of assay: co-IP; anti-ARHGEF2 antibody and Protein A agarose on lysates of WT and PKP4-KO keratinocytes kept 24 h in HCM; normal rabbit IgG as control; IP buffer with 1% NP-40, 137 mM NaCl; western blot. Background: Immunoblotting shows a protein as a band on a membrane.

In assay [2] the target is T2, ARHGAP23 (mouse (endogenous in mouse keratinocytes)) (UniProt Q69ZH9).
T2 sequence: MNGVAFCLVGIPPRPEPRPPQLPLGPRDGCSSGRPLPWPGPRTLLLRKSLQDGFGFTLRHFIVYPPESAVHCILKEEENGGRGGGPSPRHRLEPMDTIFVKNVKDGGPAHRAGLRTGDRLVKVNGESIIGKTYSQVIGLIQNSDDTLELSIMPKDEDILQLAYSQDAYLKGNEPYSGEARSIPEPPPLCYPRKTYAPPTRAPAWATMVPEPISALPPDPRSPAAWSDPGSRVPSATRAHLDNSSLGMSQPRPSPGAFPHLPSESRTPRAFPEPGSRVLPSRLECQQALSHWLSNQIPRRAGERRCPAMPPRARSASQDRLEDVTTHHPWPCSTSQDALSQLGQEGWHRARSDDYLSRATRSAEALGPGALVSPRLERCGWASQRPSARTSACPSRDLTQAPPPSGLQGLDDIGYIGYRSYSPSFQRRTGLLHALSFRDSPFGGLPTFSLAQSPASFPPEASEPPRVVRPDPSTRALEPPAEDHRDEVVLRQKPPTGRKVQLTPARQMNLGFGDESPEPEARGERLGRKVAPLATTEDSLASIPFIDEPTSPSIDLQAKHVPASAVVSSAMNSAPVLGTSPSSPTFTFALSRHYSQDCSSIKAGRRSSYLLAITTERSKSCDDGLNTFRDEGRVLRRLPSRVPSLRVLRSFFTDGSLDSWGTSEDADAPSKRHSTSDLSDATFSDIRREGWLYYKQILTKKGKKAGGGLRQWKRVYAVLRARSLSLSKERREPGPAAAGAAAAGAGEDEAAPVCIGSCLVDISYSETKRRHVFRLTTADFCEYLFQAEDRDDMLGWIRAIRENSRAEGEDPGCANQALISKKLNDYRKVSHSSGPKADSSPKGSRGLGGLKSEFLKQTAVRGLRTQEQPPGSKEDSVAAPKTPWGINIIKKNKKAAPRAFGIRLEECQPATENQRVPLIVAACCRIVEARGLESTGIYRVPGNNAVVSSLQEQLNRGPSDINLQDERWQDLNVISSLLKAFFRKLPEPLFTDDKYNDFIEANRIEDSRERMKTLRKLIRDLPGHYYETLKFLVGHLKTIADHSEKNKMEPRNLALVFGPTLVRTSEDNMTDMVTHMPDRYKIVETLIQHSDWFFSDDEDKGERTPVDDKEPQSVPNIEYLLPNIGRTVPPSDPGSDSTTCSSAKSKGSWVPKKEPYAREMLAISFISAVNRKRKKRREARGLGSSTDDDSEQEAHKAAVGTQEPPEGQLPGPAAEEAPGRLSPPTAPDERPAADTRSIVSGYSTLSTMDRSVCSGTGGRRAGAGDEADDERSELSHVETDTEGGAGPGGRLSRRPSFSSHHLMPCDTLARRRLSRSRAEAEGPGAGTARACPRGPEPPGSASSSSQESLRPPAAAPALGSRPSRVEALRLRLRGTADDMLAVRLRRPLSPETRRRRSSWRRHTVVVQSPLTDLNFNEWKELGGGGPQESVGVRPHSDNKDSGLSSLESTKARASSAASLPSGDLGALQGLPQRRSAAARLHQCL
Briefly: co-IP; anti-ARHGAP23 antibody and Protein A agarose on lysates of WT and PKP4-KO keratinocytes kept 24 h in HCM; normal rabbit IgG as control; IP buffer with 1% NP-40, 137 mM NaCl; western blot.

B1: Plakophilin 4 (PKP4), endogenous in mouse keratinocytes (protein, UniProt Q68FH0 1-1190)
chain: MPAPEQGSLVEEGQPQTHQEAVSTGPGMEPETTATTILASVKEQELQFQRLTRELEVERQIVASQLERCRLGAESPSIASTSSTEKSFPWRSTDVPNPGVSKPRVSDTIHPNNYLIRTEPEQGTLYSPEQTSLHESEGSLGNSRSSTQMNSYSDSGYQEAGSFHNSQTVNKADSRQHPFTGSTSNHVVRTSRAEGQTLVQPSVANRAMRRVSSVPSRAQSPSYVTSTGVSPSRGSLRTSLGSGFGSPSVTDSRPLNPSAYSSSTLPAQRAASPYSQRPASPTAVRRVGSVTSRQTSNPNGPVPQYQTTTRVGSPLTLTDAQTRVASPSQGQVGSSSPKRSGMTAVPQHLGPSLQRTVHDMDQFGQQQYDIYERMVPPRPDSLTGLRSSYASQHSQLGQELRSAVSPDLHITPIYEGRTYYSPVYRSPNHGTVELQGSQTALYRTGSVGIGNLQRTSSQRSTLTYQRNNYALNTAATYAEPYRPVQYRVQECSYNRLQHTGPADDGATRSPSIDSIQKDPREFAWRDPELPEVIHMLQHQFPSVQANAAAYLQHLCFGDNKVKMEVYRLGGIKHLVDLLDHRVLEVQKNACGALRNLVFGKSTDENKIAMKNVGGIPALLRLLRKSIDAEVRELVTGVLWNLSSCDAVKMTIIRDALSTLTNTVIVPHSGWNNSSFDDDHKIKFQTSLVLRNTTGCLRNLSSAGEEARKQMRSCEGLVDSLLYVIHTCVNTSDYDSKTVENCVCTLRNLSYRLELEVPQARLLGLNELDDLLGKESPSKDSEPSCWGKKKKKKKRTPQEDQWDGVGPIPGLSKSPKGVEMLWHPSVVKPYLTLLAESSNPATLEGSAGSLQNLSAGNWKFAAYIRAAVRKEKGLPILVELLRMDNDRVVSSVATALRNMALDVRNKELIGKYAMRDLVNRLPGGNGPSILSDETVAAICCALHEVTSKNMENAKALADSGGIEKLVNITKGRGDRSSLKVVKAAAQVLNTLWQYRDLRSIYKKDGWNQNHFITPVSTLERDRFKSHPSLSTTNQQMSPIIQSVGSTSSSPALLGIREPRSEYDRTQPPMQYYNSQGDTTHKGLYPGSSKPSPIYISSYSSPAREQNRRLQHQQLYYQDDSTRKTLDAYRLYLQSPRSYEDPYCDDRVHFPASTDYSTQYGLKSTTNYVDFYSTKRPSYRAEQYPGSPDSWV
Take B1: the binding entry in assay [1] and in assay [2] was “binds” each time.
